# Several values for one entry are separate records, joined by “and”; a condition that tells them apart may be missing. Identical values can stand only once. The whole screen tested about 220,000 compounds, of which about 16,000 (7.3%) were called active. This list was built around the results that the source calls inconclusive (neither active nor inactive); the mix of calls is not that of the screen. The call rests on the fitted dose curve; in most records, active means well fitted inhibition curve with a large enough effect (not every such curve was filed as active); inconclusive means small, poorly fitted or top-dose-only effect, or another doubt; inactive means no such curve, though single readings can be large or run the other way. No potency is given beside an inconclusive call; the fits are too rough.
# Target: Aldehyde dehydrogenase 1A1 (Homo sapiens) (UniProt P00352)
# UniProt P00352, sequence (P00352 whole entry, looked up): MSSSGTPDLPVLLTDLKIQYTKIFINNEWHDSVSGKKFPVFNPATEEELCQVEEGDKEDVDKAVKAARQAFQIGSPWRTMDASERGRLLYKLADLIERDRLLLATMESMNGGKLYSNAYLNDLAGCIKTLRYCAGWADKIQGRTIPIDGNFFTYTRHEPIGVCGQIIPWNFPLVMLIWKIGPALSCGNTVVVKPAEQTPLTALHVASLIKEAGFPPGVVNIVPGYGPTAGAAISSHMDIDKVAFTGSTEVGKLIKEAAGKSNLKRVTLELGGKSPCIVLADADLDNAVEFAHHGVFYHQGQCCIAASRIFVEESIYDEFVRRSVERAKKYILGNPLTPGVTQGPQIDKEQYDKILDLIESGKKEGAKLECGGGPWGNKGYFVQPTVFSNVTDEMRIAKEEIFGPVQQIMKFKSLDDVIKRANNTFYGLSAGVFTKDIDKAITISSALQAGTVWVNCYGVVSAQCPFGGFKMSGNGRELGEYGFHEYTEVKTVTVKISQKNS
# Experiment: qHTS Assay for Inhibitors of Aldehyde Dehydrogenase 1 (ALDH1A1);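 on activity, negative = inhibition: plate controls were no enzyme wells and a reference inhibitor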
# Details: Purified ALDH1A1, NADH fluorescence, propionaldehyde substrate; series mostly up to 75.3 µM; activity, negative = inhibition: at the top concentration
# Potency means the concentration at half of the fitted maximal effect; tags describe the fitted curve by direction and shape.
Structure (SMILES),Potency,"activity, negative = inhibition"
COC(=O)[C@H]1C[C@@H]1[C@H](NC(=O)c1ccccc1)c1ccccc1,active: 14.1 µM and active: 8.91 µM,
COc1ccc(-c2c(C(C)=O)c(C)nc3sc4c(=O)[nH]nnc4c23)cc1,"inconclusive [inhibitor, single point]",
CC1=C/C(=N\NC(=S)Nc2cccnc2)CC(C)(C)C1,active: 11.9 µM,
COc1cccc(Nc2ncc3nc(CCc4ccccc4)c(=O)n(C)c3n2)c1,"inconclusive [inhibitor, single point]",
Cc1cccc(N(C)S(=O)(=O)c2ccc3c(c2)CCC(=O)N3)c1,"inconclusive [inhibitor, partial curve]",
COc1ccc(CN(CC(=O)NC2CCCCC2)C(=O)CCCC(=O)Nc2ccccn2)cc1,"inconclusive [inhibitor, partial curve]",
C/C(N)=C(/C#N)C(=O)COC(=O)c1cc(-c2ccc(Br)cc2)nc2ccccc12,,inactive: 7.62%
COCc1c(Br)c(C)[nH]c(=O)c1C#N,"inconclusive [inhibitor, single point]",
COc1cc(NC(=O)c2ccccc2)c(OC)cc1NC(=O)Cc1cccs1,"inconclusive [inhibitor, single point]",
Cc1ccc(N2CC(C(=O)Nc3nnc(SCC(=O)Nc4nc(C)cs4)s3)CC2=O)cc1 (configuration not stated),,inactive: -2.53%
Cc1nc2sccn2c(=O)c1CCN1CCC(=C(c2ccc(F)cc2)c2ccc(F)cc2)CC1,inactive,
CC1CCCCN1S(=O)(=O)c1ccc(C(=O)Nc2ccccc2-c2nc3ccccc3[nH]2)cc1 (configuration not stated),"inconclusive [inhibitor, partial curve]",
CC1Cc2ccccc2N1C(=O)c1cccnc1 (configuration not stated),"inconclusive [inhibitor, single point]",
CCCc1cc(=O)[nH]c(SCC(=O)c2cc(C)n(C)c2C)n1,,inactive: -6.65%
Cc1ccc(CNC(=O)c2ccc(N(C)C)cc2)cc1,"inconclusive [inhibitor, single point]",
Cn1cccc1CNCc1ccc(F)cc1,"inconclusive [inhibitor, single point]",
Cc1cccc(NC(=O)Cn2c(=O)n(CCC(=O)NC3CCCC3)c(=O)c3ccccc32)c1,,inactive: 6.36%
O=C(NCc1ccco1)c1cccc2ccccc12,,inactive: -7.15%
O=c1oc(-c2cccs2)nc2c1cnn2-c1ccccc1,"inconclusive [inhibitor, single point]",
CC(C)CN1C(=O)C(=Nc2cccnc2)c2ccccc21,active: 1 µM,
COc1cc(NC(=S)NCc2cccnc2)cc(OC)c1OC,"inconclusive [inhibitor, single point]",
COc1ccc(CC(=O)NC2CCN(Cc3nnnn3C(C)(C)C)CC2)cc1OC,active: 25.1 µM,
COCCNc1ncnc2ccc(-c3ccccc3OC)cc12,"inconclusive [inhibitor, single point]",
COc1ccc(NCc2nc3ccccc3n2CCOc2ccccc2)cc1,,inactive: -11.1%

Structure (SMILES),Potency,"activity, negative = inhibition"
CCn1cc(Br)c(C(=O)NC(C)c2ccccc2)n1 (configuration not stated),"inconclusive [inhibitor, single point]",
O=[N+]([O-])c1cccc(-c2nc(N3CCOCC3)c3ccccc3n2)c1,active: 7.94 µM,
O=C(NCc1ccco1)C1CCCN(S(=O)(=O)c2cccc3nonc23)C1 (configuration not stated),"inconclusive [inhibitor, single point]",
COc1cc2nc(SCc3c(C)noc3C)n(CCC3=CCCCC3)c(=O)c2cc1OC,"inconclusive [inhibitor, partial curve, poor fit]",
COc1cc2c(cc1OC)C(c1ccc(N(C)C)cc1)CC(=O)N2 (configuration not stated),active: 8.91 µM,
O=C(Nc1ccccc1N1CCN(C(=O)c2ccc(Cl)cc2)CC1)c1ccc2c(c1)OCO2,"inconclusive [inhibitor, partial curve]",
CC1/C(=N/O)CC(c2ccco2)NC1c1ccco1 (configuration not stated),,inactive: -5.94%
COc1ccccc1/C=C(/CC(=O)NCc1ccc(F)cc1)c1nc2ccccc2s1,"inconclusive [inhibitor, partial curve]",
Nc1nnc(SCC(=O)Nc2ccc3nc(SCC(=O)Nc4ccccc4)sc3c2)s1,,inactive: -10.4%
CCOC(=O)c1cc(C#N)c(N2CCCC2)nc1-c1ccccc1,"inconclusive [inhibitor, partial curve]",
CC1=NN(Cc2ccccc2)C(=O)C1,"inconclusive [inhibitor, partial curve]",
CCOC(=O)c1cc(-c2ccccc2)sc1NC(=O)C(C)OC(=O)c1cccnc1OCC (configuration not stated),,inactive: 1.74%
CN(C)CCCN(Cc1cc2cc3c(cc2[nH]c1=O)OCO3)C(=S)Nc1cccc(Cl)c1,"inconclusive [inhibitor, partial curve]",
O=S(=O)(NCC1CCCO1)c1ccc2c(c1)OCCO2 (configuration not stated),"inconclusive [inhibitor, single point]",
Cc1cc(C)n(Cc2ccc(C(=O)NCCC3=CCCCC3)o2)n1,"inconclusive [inhibitor, single point]",
O=C(CSCc1ccccc1)NCc1ccc2c(c1)OCO2,"inconclusive [inhibitor, partial curve]",
Cc1noc(C)c1C(=O)N1CCC2(CCCN(c3ccccn3)C2)CC1,"inconclusive [inhibitor, single point]",
CC(=O)c1ccc(Oc2cc(C)nc(NCc3ccccc3)n2)cc1,"inconclusive [inhibitor, single point]",
C=CCNC(=O)c1ccc2nccnc2c1,,inactive: -17%
O=C(c1ccco1)N1CCN(C(=O)c2cc(-c3ccccc3)nc3ccccc23)CC1,,inactive: -0.752%
CN(C)S(=O)(=O)c1ccc(C(=O)Nc2cc(=O)n(C)c(=O)n2C)cc1,"inconclusive [inhibitor, single point]",
c1ccc2nc(CC[C@@H]3CCCCN3)ccc2c1,,inactive: 10.6% [at 13.5 µM]
O=C(OC1CCCCC1)c1ccc2c(c1)C1C=CCC1C(C(=O)O)N2 (configuration not stated),active: 15.8 µM,

# Source: PubChem BioAssay AID1030 (National Center for Advancing Translational Sciences (NCATS), 2008)
